Among all 350,000 compounds or so, about 260 (0.074%) were called active. The shares of active, inactive and inconclusive entries below differ from those in the screen. Calls follow the shape of the dose curve; as a rule, active = well fitted inhibition curve with a large enough effect; inconclusive = small, poorly fitted or top-dose-only effect; inactive = no such curve, though single readings can be large or run the other way. Potencies of inconclusive entries are doubtful fits and often do not repeat.
What follows are molecules tested against Ferritin light chain (Equus caballus) (UniProt P02791) (assay: qHTS Assay for Identification of Novel General Anesthetics). Conditions: apoferritin/1-aminoanthracene competitive binding, fluorescence; activity change, negative = displacement: at 77.5 µM (top of the series).
How it was run: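 In PBS, apoferritin at 10 uM is loaded with 1-AMA from a 50% saturated solution. After 10 min of compound exposure at ambient temperature, reduced 535 nm fluorescence indicates probe displacement.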
% is scaled to controls: 0 for no effect and ±100 for the full control effect; potency is read from the fitted curve at half-maximal effect; tags tell the direction and shape of the fitted curve.
Also: nearly all actives have a fitted effect of over 20% in size.

Sequence of UniProt P02791 (P02791 whole entry, looked up): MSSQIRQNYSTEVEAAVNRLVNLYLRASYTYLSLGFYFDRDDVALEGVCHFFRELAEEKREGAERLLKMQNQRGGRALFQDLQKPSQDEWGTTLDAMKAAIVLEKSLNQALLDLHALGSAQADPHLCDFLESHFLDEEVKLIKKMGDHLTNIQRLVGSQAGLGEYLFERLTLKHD

For `O=C(CCC(=O)n1ncc2ccccc21)NCc1ccccc1Cl`, which Potency is on record?
Its Potency is inconclusive: 25.1 µM [inhibitor, single point].

`O=C(NCCNc1ccc([N+](=O)[O-])cc1)c1ccccc1Br` was tested. Which Potency did it give?
Its Potency is inconclusive: 17.8 µM [inhibitor, partial curve].

Which Potency does the source give for `CCCCC(=O)c1ccc(O)cc1` here?
Its Potency is inconclusive: 28.2 µM [inhibitor, single point].

With `CC(C)CCOc1ccc(C(=O)N2CCN(c3ncccn3)CC2)cc1` as the molecule, how does the Potency read?
Its Potency is inconclusive: 44.7 µM [inhibitor, partial curve].

For `CC(C)(C)NC(=O)C1c2ccccc2Oc2ccccc21`, which “activity change, negative = displacement” value is on record?
Its value is inactive: -0.199%.

With `Cn1c(=O)c2nc(NCc3ccccc3)cnc2n(C)c1=O` as the molecule, how does the “activity change, negative = displacement” value read?
The value was inactive: 226%.

With `O=C(Cn1nc(-c2ccccc2)ccc1=O)NCC1COCCO1` (stereo not drawn) as the molecule, how does the Potency read?
The Potency was inconclusive: 50.1 µM [inhibitor, single point].

For `Cc1ccc(Nc2ccc(N3CCN(C(=O)c4cccc([N+](=O)[O-])c4)CC3)nn2)cc1`, which Potency is on record?
Its Potency is inconclusive: 44.7 µM [inhibitor, single point].

Which Potency does the source give for `CCCCCCCCCCCC(=O)NC(C(=O)O)C(O)c1ccccc1` (stereo not drawn) here?
Its Potency is inconclusive: 15.8 µM [inhibitor, partial curve].

`COc1cc(OC)c2c(-c3cccc(-c4ccc(NC(C)=O)cc4)c3)cc(=O)oc2c1` was tested. Which “activity change, negative = displacement” value did it give?
Its value is inactive: -6.75% [at 110 µM].

For `O=C(O)CCN1C(=O)/C(=C/c2cn(-c3ccccc3)nc2-c2cccs2)SC1=S`, which “activity change, negative = displacement” value is on record?
Its value is inactive: -5.27%.

Which Potency does the source give for `O=C(O)c1ccc(CSc2nnc(SCc3ccccc3)s2)cc1` here?
The Potency was inconclusive: 31.6 µM [inhibitor, single point].

`Cc1ccccc1-n1c(O)c(/C=C/C=Nc2ccccc2)c(=O)[nH]c1=O` was tested. Which “activity change, negative = displacement” value did it give?
Its value is inactive: -13.5%.

With `CCc1ccc(NC(=O)CSc2ccc(-c3sc(C)nc3C)nn2)cc1` as the molecule, how does the Potency read?
The Potency was inconclusive: 15.8 µM [inhibitor, partial curve].

For `O=C(c1cccs1)N1CCCC(c2ccccc2)C1` (stereo not drawn), which Potency is on record?
Its Potency is inconclusive: 35.5 µM [inhibitor, partial curve].

Which Potency does the source give for `Cc1cccc(OCC(=O)Nc2ccc(S(=O)(=O)N3CCCC3)cc2)c1` here?
Its Potency is inconclusive: 12.6 µM [inhibitor, partial curve].

`C/C(CCC(C)C)=N\NS(=O)(=O)c1ccc(C)c([N+](=O)[O-])c1` was tested. Which Potency did it give?
Its Potency is inconclusive: 31.6 µM [inhibitor, single point].

`Cc1cccn2cc(-c3ccccc3)nc12` was tested. Which “activity change, negative = displacement” value did it give?
Its value is inactive: -14.7%.

With `COc1cc(C2C(C#N)=C(N)Oc3n[nH]c(-c4cccnc4)c32)ccc1OCC(N)=O` (stereo not drawn) as the molecule, how does the “activity change, negative = displacement” value read?
Its value is inactive: 2.15%.

Which Potency does the source give for `COc1ccc(C2C(C(C)=O)=C(C)N=c3s/c(=C\c4ccco4)c(=O)n32)c(OC)c1` (stereo not drawn) here?
Its Potency is inconclusive: 25.1 µM [inhibitor, partial curve].

With `Cc1cccc(C(=O)Nc2ccc(O)c3c(=O)cc(-c4ccccc4Cl)oc23)c1` as the molecule, how does the Potency read?
The Potency was inconclusive: 17.8 µM [inhibitor, partial curve, poor fit].

Which Potency does the source give for `CN(C)c1ccc(C(CNC(=O)c2ccc(C(C)(C)C)cc2)N2CCCC2)cc1` (stereo not drawn) here?
The Potency was inconclusive: 50.1 µM [inhibitor, single point].

`COc1ccc(-n2nc(C(=O)NCCc3ccc(Cl)cc3)c3c4ccccc4n(C)c3c2=O)cc1` was tested. Which “activity change, negative = displacement” value did it give?
Its value is inactive: -5.54%.

With `OB(O)c1ccc(Br)cc1` as the molecule, how does the Potency read?
The Potency was inconclusive: 25.1 µM [inhibitor, partial curve].

With `CCOC(=O)c1c(NC(=S)NNS(=O)(=O)c2ccc(Br)cc2)sc2c1CCCCC2` as the molecule, how does the “activity change, negative = displacement” value read?
The value was inactive: 6.86%.

For `Cc1[nH]c2ccccc2c1C1C(c2ccccc2)=NN=C(C(C)C)N1O` (stereo not drawn), which Potency is on record?
The Potency was inconclusive: 0.794 µM [inhibitor, full curve, poor fit].

For `CCOC(=O)c1cc2c(ccn2C)n1CC(=O)N1CCN(c2cccc(C(F)(F)F)c2)CC1`, which Potency is on record?
The Potency was inconclusive: 20 µM [inhibitor, partial curve].

For `Cc1cccc(OCC(=O)N/N=C/c2ccc3c(c2)OCO3)c1`, which Potency is on record?
Its Potency is inconclusive: 15.8 µM [inhibitor, partial curve].

For `Cc1cccc(CN2CCSc3sccc3C2=O)c1`, which Potency is on record?
Its Potency is inconclusive: 8.91 µM [inhibitor, partial curve].

`C=CCn1c(SCC(=O)Nc2cccnc2Cl)nnc1-c1ccc(C(C)(C)C)cc1` was tested. Which Potency did it give?
Its Potency is inconclusive: 56.2 µM [inhibitor, single point].

With `O=C(/C=C/NCc1cccnc1)c1ccc(-c2ccccc2)cc1` as the molecule, how does the Potency read?
Its Potency is inconclusive: 28.2 µM [inhibitor, partial curve].

How did the Potency turn out when `COc1ccc(/C=C/C(=O)c2ccc(O)cc2)cc1COc1ccc(F)cc1` was run?
The Potency was inconclusive: 11.2 µM [inhibitor, partial curve].

Which Potency does the source give for `Cc1cc(O)c(C=O)c2c1C(=O)Oc1c(CO)c(O)c3c(c1O2)C(O)OC3=O` (stereo not drawn) here?
The Potency was inconclusive: 31.6 µM [inhibitor, partial curve].

For `CN(Cc1ccccc1)C(=O)CSc1c2c(nc3ccc(Cl)cc13)CCCC2`, which Potency is on record?
Its Potency is inconclusive: 25.1 µM [inhibitor, partial curve].

How did the “activity change, negative = displacement” value turn out when `CCC(C)(C)n1nnnc1CN(Cc1ccc(Cl)cc1)Cc1ccco1` was run?
Its value is inactive: 10.8%.

For `COc1ccc(/C=C/C(=O)c2ccc(OC)cc2OC)c(OC)c1`, which Potency is on record?
Its Potency is inconclusive: 22.4 µM [inhibitor, partial curve].

For `O=C(Nc1ccccc1)N1CCSCC1`, which Potency is on record?
Its Potency is inconclusive: 39.8 µM [inhibitor, single point].

With `COc1ccc(OCC(=O)N/N=C(/C)Cc2ccccc2)cc1` as the molecule, how does the “activity change, negative = displacement” value read?
The value was inactive: -19.7%.

With `Cc1cccc(C)c1-n1nnnc1S(=O)(=O)Cc1ccccc1Cl` as the molecule, how does the Potency read?
Its Potency is inconclusive: 3.55 µM [inhibitor, full curve].

Which Potency does the source give for `COC(=O)c1ccc(NC(=O)c2cc3sccc3n2C)cc1` here?
Its Potency is inconclusive: 12.6 µM [inhibitor, partial curve].

`C=CCn1c(Cc2cccs2)nnc1SCC(=O)Nc1ccc(OC)cc1` was tested. Which Potency did it give?
Its Potency is inconclusive: 25.1 µM [inhibitor, partial curve].

With `COc1cccc(CC2(CO)CCCN(Cc3ccc(C)s3)C2)c1` (stereo not drawn) as the molecule, how does the “activity change, negative = displacement” value read?
Its value is inactive: -12.5%.

`O=C(c1ccc(Br)cc1)c1cc([N+](=O)[O-])ccc1N1CCOCC1` was tested. Which Potency did it give?
Its Potency is inconclusive: 35.5 µM [inhibitor, partial curve].

`O=c1[nH][nH]cc1C=Nc1ccc(Oc2ccccc2)cc1` was tested. Which Potency did it give?
Its Potency is inconclusive: 35.5 µM [inhibitor, single point].

How did the Potency turn out when `O=c1[nH]c2ccc(NCc3ccc(F)cc3)cc2[nH]1` was run?
The Potency was inconclusive: 17.8 µM [inhibitor, partial curve].

How did the Potency turn out when `Cc1cc(Nc2ccccc2)nn1C(=O)c1ccccc1` was run?
Its Potency is inconclusive: 39.8 µM [inhibitor, partial curve].

With `CC1(O)c2ccccc2C(=O)N1CCc1ccccc1F` (stereo not drawn) as the molecule, how does the Potency read?
Its Potency is inconclusive: 39.8 µM [inhibitor, partial curve].

How did the Potency turn out when `OC(CN1CCN(c2cccc(C(F)(F)F)c2)CC1)c1c[nH]c2ccccc12` (stereo not drawn) was run?
Its Potency is inconclusive: 12.6 µM [inhibitor, partial curve].

`N=c1occ(C(=O)c2cc(F)ccc2O)cc1C(=O)NC1CCCCC1` was tested. Which Potency did it give?
The Potency was inconclusive: 22.4 µM [inhibitor, partial curve].

For `CC1CCCC(C)N1C(=O)COC(=O)C(Cc1ccccc1)NC(=O)c1cccs1` (stereo not drawn), which Potency is on record?
The Potency was inconclusive: 39.8 µM [inhibitor, partial curve].

With `Fc1ccc(CSc2nc3ncc(Br)cc3[nH]2)cc1` as the molecule, how does the “activity change, negative = displacement” value read?
The value was inactive: -9.09%.

With `O=C(OCc1ccc2c(c1)OCO2)c1ccc(S(=O)(=O)N2CCCC2)cc1` as the molecule, how does the Potency read?
Its Potency is inconclusive: 50.1 µM [inhibitor, single point].

With `COC(=O)Cn1cc(C(=O)OC)cc(Br)c1=O` as the molecule, how does the “activity change, negative = displacement” value read?
Its value is inactive: -13.6%.

For `CCC(NC(=O)CCc1nnc(-c2cc(C)on2)o1)C12CC3CC(CC(C3)C1)C2` (stereo not drawn), which Potency is on record?
Its Potency is inconclusive: 35.5 µM [inhibitor, single point].

With `CCCCCC(=O)Nc1nc(C)c(-c2csc(Nc3ccccc3OCC)n2)s1` as the molecule, how does the Potency read?
Its Potency is inconclusive: 35.5 µM [inhibitor, partial curve].

For `O=C(Cn1[nH]c(=O)c2ccccc2c1=O)Nc1cccc(-c2nnc3n2CCCCC3)c1`, which Potency is on record?
The Potency was inconclusive: 44.7 µM [inhibitor, single point].

How did the Potency turn out when `CCOC(=O)N1CCN(Cc2nc3ccc([N+](=O)[O-])cc3c(=O)n2-c2cccc(OC)c2)CC1` was run?
Its Potency is inconclusive: 20 µM [inhibitor, partial curve].

Which Potency does the source give for `CCc1ccc(CN2CCC(n3nccc3NC(=O)C3CCCC3)CC2)cc1` here?
The Potency was inconclusive: 35.5 µM [inhibitor, single point].

`CCOC(=O)c1c(C)[nH]c(N=Nc2cccc(C)c2)c1C` was tested. Which Potency did it give?
The Potency was inconclusive: 11.2 µM [inhibitor, full curve, poor fit].

How did the Potency turn out when `Cc1cccc(-n2cccc2)c1C#N` was run?
The Potency was inconclusive: 31.6 µM [inhibitor, partial curve].

Which “activity change, negative = displacement” value does the source give for `CSC(=S)N/N=C/c1ccc(N(C)C)cc1` here?
Its value is inactive: -4.68%.

How did the Potency turn out when `CCOc1ccccc1N(CC)C(=O)c1ccc2c(=O)n3c(nc2c1)CCCCC3` was run?
Its Potency is inconclusive: 25.1 µM [inhibitor, partial curve].

With `CCCCCn1c(CN2CCN(c3cccc(Cl)c3)CC2)nc2c1c(=O)n(C)c(=O)n2C` as the molecule, how does the Potency read?
The Potency was inconclusive: 12.6 µM [inhibitor, partial curve].

Which “activity change, negative = displacement” value does the source give for `CCOC(=O)c1sc(Nc2nc3c(F)cccc3s2)cc1C` here?
Its value is inactive: 5.66%.

With `COC(=O)[C@@]1(Cc2ccc(F)cc2)[C@H]2c3cc(C(=O)N4CCCC4)n(CCCNc4ncc(C(F)(F)F)cc4Cl)c3C[C@H]2CN1C(=O)c1ccccc1` as the molecule, how does the Potency read?
The Potency was inconclusive: 3.55 µM [inhibitor, full curve].

Which “activity change, negative = displacement” value does the source give for `C=CCn1c(SCC(=O)NC2CCCC2)nnc1-c1ccncc1` here?
Its value is inactive: 0.451%.

How did the Potency turn out when `Cc1ccc(S(=O)(=O)N2CCN(CC(=O)N/N=C\c3ccc(Cl)c([N+](=O)[O-])c3)CC2)cc1` was run?
The Potency was inconclusive: 15.8 µM [inhibitor, partial curve].

Which “activity change, negative = displacement” value does the source give for `CCc1ccccc1NC(=O)CCc1c(C)nc2cc(-c3ccccc3)nn2c1C` here?
Its value is inactive: 0.278%.
